Series [1] addresses T1, native glucocorticoid receptor (Homo sapiens, UniProt P04150).
T1 sequence (P04150 1-777): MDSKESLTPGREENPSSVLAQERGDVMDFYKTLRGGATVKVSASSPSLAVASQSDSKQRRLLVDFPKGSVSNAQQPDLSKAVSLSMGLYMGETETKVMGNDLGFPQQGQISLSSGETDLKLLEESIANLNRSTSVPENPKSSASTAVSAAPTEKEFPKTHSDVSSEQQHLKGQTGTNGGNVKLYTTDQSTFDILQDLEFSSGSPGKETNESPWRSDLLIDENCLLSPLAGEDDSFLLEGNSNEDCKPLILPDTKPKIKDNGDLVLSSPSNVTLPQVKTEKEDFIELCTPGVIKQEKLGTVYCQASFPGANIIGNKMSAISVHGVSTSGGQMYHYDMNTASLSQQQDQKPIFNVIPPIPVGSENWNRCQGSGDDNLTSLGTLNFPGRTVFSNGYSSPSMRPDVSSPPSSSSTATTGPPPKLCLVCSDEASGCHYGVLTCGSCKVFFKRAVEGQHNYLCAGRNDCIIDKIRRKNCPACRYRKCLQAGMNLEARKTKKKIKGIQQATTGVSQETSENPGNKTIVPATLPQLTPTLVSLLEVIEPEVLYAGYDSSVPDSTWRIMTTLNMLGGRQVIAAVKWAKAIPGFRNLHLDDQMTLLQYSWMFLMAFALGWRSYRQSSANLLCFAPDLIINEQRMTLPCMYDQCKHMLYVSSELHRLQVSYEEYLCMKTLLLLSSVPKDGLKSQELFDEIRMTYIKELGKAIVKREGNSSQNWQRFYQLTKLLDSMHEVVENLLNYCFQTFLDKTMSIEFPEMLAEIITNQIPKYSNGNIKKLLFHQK
Nature of the series: CYP2A6 reporter (coumarin 7-hydroxylase) coupled to GRE/MMTV-LTR promoter, native glucocorticoid receptor of host cells. The note with it: for Coumarin Hydroxylase Activity DEX Induced: DEX 2.5 uM.

The next series has as its system AHH-1 TK± cells. The source says: The reporter gene expression as reported in previous tables and figures is expressed as pmoles product/well in a 96 well microtiter plate as measured fluorometrically. […] A toxicity curve reflecting the relative number of cells/well present at the end of treatment was obtained as a function of chemical concentration. […] This suppression can be corrected for by determining the cell concentration in the well or by determining the suppression of CH activity in a cell line which constitutively expresses the reporter.

Series [2] deals with CYP2A6 reporter expression.
In series [3] the test system is CYP2D6 expression from SV40 expression cassette. Nature of the series: CYP2D6 expression (bufuralol hydroxylase) from SV40 expression cassette, PPARα surrogate. The note with it: SV296 based construction; treatment with 5dAC. The format is cell-based, human.
The test system of a further series is CYP2A6. The note with it: coumarin to 7-hydroxycoumarin; read-out: apparent Km; cited from earlier work.
In another series the target is T2, mouse PPARα (Mus musculus, UniProt P23204).
T2 sequence (P23204 1-468): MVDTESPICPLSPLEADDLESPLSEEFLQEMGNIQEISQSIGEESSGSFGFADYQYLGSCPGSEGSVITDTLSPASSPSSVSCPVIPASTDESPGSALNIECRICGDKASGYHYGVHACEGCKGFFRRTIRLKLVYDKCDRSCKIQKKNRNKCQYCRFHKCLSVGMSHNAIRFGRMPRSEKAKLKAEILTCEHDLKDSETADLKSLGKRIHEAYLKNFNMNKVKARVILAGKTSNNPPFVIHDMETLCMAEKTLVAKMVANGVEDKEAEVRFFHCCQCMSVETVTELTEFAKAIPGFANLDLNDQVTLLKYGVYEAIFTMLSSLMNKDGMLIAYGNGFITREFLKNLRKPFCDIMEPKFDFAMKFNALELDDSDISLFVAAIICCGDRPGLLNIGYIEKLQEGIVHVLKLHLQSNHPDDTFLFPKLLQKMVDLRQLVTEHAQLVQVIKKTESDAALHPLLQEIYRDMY
The method, then: MMTV-LTR1 is native, MMTV-LTR2 is minus CpG, MMTV-LTR3 is TATA only. Orientation is relative to reporter. CH activity is pmole per 10^6 cell min. Assuming the cells double every 24 hours, the maximium cell density is 2×10^6 cells per ml, using the log average cell concentration for each day of exposure. Earliest post fusion-values were used. […] It is merely a concentration in the monotonic portion of the dose response curve which has been used consistently in many experiments.
The comparison was performed by incubating 0.2 ml cells for 3 days in the wells of a microtiter plate at an initial cell concentration of 5×10^5 cells per ml in the presence of increasing amounts of inducer and 50 uM coumarin.
In this test we used an initial cell concentration of 2 million cells/ml contained in 0.2 ml culture medium per well of a 96 well microtiter plate. Coumarin (0.05 mM) and clofibrate (concentration was an experimental variable) were added at the beginning of the incubation time. Cells were incubated for 3 days and the 7-hydroxycoumarin content in the wells was analyzed by fluorescence with excitation at 360 nm and emission at 460 nm using a Cytofluor 2350 (Millipore). […] The elevation in pH increases 7-hydroxycoumarin fluorescence by increasing the proportion of the fluorochrome which is ionized. Quantitation was achieved by comparison to a 7-hydroxycoumarin standard curve.
The ACO-PPRE constructs were centrifuged and resuspended at a density of 2 million cells per milliliter in RPMI media with 9% horse serum. One hundred microliters of the cell suspension was distributed into a total of four rows, two rows being at the opposite end of a 96 well microtiter plate. One set was labeled as clofibrate and the other set was labeled as the blank. Clofibrate was then added at concentration of 3 mM, 2 mM, 1 mM, 0.5 mM & 0 mM to the appropriate wells. Stock concentration of clofibrate was 50 mM in 75 mM NaOH. One hundred microliters of media containing 100 micromolar coumarin was then added to the clofibrate containing wells. The negative control contained cell suspension and 100 uM coumarin only. The plates were placed at […] for three days. In a distinct set of wells, one hundred microliters of hydroxy-coumarin standard was placed in two rows The concentrations are in units of pmoles and the values are: 1250, 625, 313, 156, 78, 39, 19.5 & 0. At the end of the three day incubation period, one hundred microliters of media containing 100 uM coumarin was added to the wells labeled as blank. Next 0.1M Tris pH 9.0 was distributed to the contents of each well. Fluorescence was analyzed with a cytofluor 2350 (Millipore) with excitation at 360 nm and emission at 460 nm (both filters with a 40 nm bandwidth). The net fluorence was calculated by subtracting the fluorescence of the blank wells from the fluorescence of the test wells for each clofibrate concentration. Conversion to pmole product per well was accomplished by comparison to the fluorescence of the standards. The responsiveness of the different constructs to clofibrate induction was measured immediately after viable, hygromycin resistant cells were obtained and periodically thereafter in order to evaluate the stability of the system. The data were graphed as the fold induction relative to the without clofibrate control incubation. This is a measure of the responsiveness of the system and corrects for differences in the negative control values for the different reporter constructs.

As for `C[C@@H]1C[C@H]2[C@@H]3CCC4=CC(=O)C=C[C@]4(C)[C@@]3(F)[C@@H](O)C[C@]2(C)[C@@]1(O)C(=O)CO` [DEX, dexamethasone], the “DEX induced CH activity above basal levels” value in series [1] (RSV enhancer, MMTV-LTR with CpG island deleted) was “about 10 fold”. Besides, in series [1] (RSV enhancer, MMTV-LTR with CpG island deleted, low copy vector), the “maximal dexamethasone (DEX) induced coumarin 7-hydroxylase (CH) activity” value is reported as 0.1 pmole per (10^6 cells×minute). Besides, the “Coumarin Hydroxylase Activity DEX Induced” value in series [1] (cell line T144 (pMF6, HaMSV, GRE, MMTV-LTR2), 2 days) is reported as 0.3-0.5 pmole/(10^6 cells×min); in series [1] (cell line T147 (pMF6, u700, GRE, MMTV-LTR2)) it was 0.23 pmole/(10^6 cells×min); in series [1] (cell line T148 (pMF6, u700, GRE, MMTV-LTR2)), 0.15 pmole/(10^6 cells×min); in series [1] (cell line T149 (pMF6, SV40, GRE, MMTV-LTR2)), 0.18 pmole/(10^6 cells×min); in series [1] (cell line T150 (pMF6, SV40, GRE, MMTV-LTR2)) it was 0.16 pmole/(10^6 cells×min); in series [1] (cell line T156 (pMF6, MSV(5'-3') + SV40, GRE, MMTV-LTR2)), 0.097 pmole/(10^6 cells×min). Besides, the “Coumarin Hydroxylase Activity DEX Induced” value in series [1] (cell line T157 (pMF6, MSV(5'-3') + SV40, GRE, MMTV-LTR2)) was 0.097 pmole/(10^6 cells×min); in series [1] (cell line T162 (pMF6, u700(3'-5') + SV40, GRE, MMTV-LTR2)), 0.042 pmole/(10^6 cells×min); in series [1] (cell line T163 (pMF6, u700(3'-5') + SV40, GRE, MMTV-LTR2)), 0.056 pmole/(10^6 cells×min); in series [1] (cell line T168 (pMF6, RSV + SV40, GRE, MMTV-LTR2)), 0.068 pmole/(10^6 cells×min); in series [1] (cell line T169 (pMF6, RSV + SV40, GRE, MMTV-LTR2)), 0.14 pmole/(10^6 cells×min); in series [1] (cell line T174 (pMF6, KAPPA, GRE, MMTV-LTR2)), 0.004 pmole/(10^6 cells×min). For the same molecule, the “Coumarin Hydroxylase Activity DEX Induced” value in series [1] (cell line T176 (pMF6, HaMSV(5'-3') + KAPPA, GRE, MMTV-LTR2)) is recorded as 0.3-0.5 pmole/(10^6 cells×min); in series [1] (cell line T177 (pMF6, HaMSV(5'-3') + KAPPA, GRE, MMTV-LTR2), cell adds (Unstable)) it was 0.26 pmole/(10^6 cells×min); in series [1] (cell line T178 (pMF6, HaMSV(3'-5') + KAPPA, GRE, MMTV-LTR2), cell adds (Inducibility lost)) it was 0.34 pmole/(10^6 cells×min); in series [1] (cell line T180 (pMF6, RSV + KAPPA, GRE, MMTV-LTR2)) it was 0.07 pmole/(10^6 cells×min); in series [1] (cell line pEHT144 (pEBVHIStK high copy, HaMSV, GRE, MMTV-LTR2)) it was 14.4 pmole/(10^6 cells×min). In series [1] (pEHT144 (T144 reporter in high copy number vector pEBVHistk)), this molecule returned a DEX inducibility of 7 to 10 fold. The “maximal level of CH activity” value in series [1] (pEHT144, DEX-induced) was 10-20 pmole/(10^6 cells×min). For the same molecule, the “reversal of toxicity of glucocorticoid antagonists upon long term incubation” value with AHH-1 TK± cells is given as “can be reversed”.

On to `Nc1ncn([C@H]2C[C@H](O)[C@@H](CO)O2)c(=O)n1` [5dAC, deoxy-5-azacytidine], for which the “Glucocorticoid induced expression of CYP2A6 decreased with time in culture” value in series [2] is “could be restored”. For the same molecule, the “increase of the clofibrate induced signal” value in series [2] (0.25 ug/mL) fell in the range of 20 to 50 fold. Besides, the “CYP2D6 expression level (bufuralol hydroxylase activity)” value in series [3] is recorded as “not affected”.

Consider `Nc1ncn([C@@H]2O[C@H](CO)[C@@H](O)[C@H]2O)c(=O)n1` [5-azacytidine], for which the “expression from the MMTV-LTR (unstable, half life approximately 5 days)” value in series [2] is “Expression could be restored”.

As to `O=c1ccc2ccccc2o1` [coumarin], the Km in the series with CYP2A6 was 1 µM.

Consider `CC(C)(Oc1ccc(C2CC2(Cl)Cl)cc1)C(=O)O` (centres unmarked) [ciprofibrate], for which, at mouse PPARα, the “CYP2A6-catalyzed coumarin 7-hydroxylase activity upon treatment of the cells” value was “concentration dependent increase”; the “potency rank on a molar basis” value is given as “followed by ciprofibrate”; the “ranking of chemicals of known ability to induce peroxisome proliferation” value is on record as “correctly rank”; the “reporter gene expression, concentration response” value is on record as “concentration-dependent increases”. Further, in the series with AHH-1 TK± cells, the “difference in toxicity among cell lines” value is “No differences in toxicity”, the “relative toxicity on a molar basis” value is given as “more toxic on a molar basis” and the “toxicity to the cells” value was “toxic”.

In the case of `Cc1cccc(Nc2cc(Cl)nc(SCC(=O)O)n2)c1C` [WY14,463], on mouse PPARα, the “CYP2A6-catalyzed coumarin 7-hydroxylase activity upon treatment of the cells” value was “concentration dependent increase”; the “potency rank on a molar basis” value is recorded as “most potent”; the “ranking of chemicals of known ability to induce peroxisome proliferation” value is on record as “correctly rank”; the “reporter gene expression, concentration response” value is on record as “concentration-dependent increases”.

The values are drawn from patent US5726041A, “Method for detecting a receptor-ligand complex using a cytochrome P450 reporter gene” (priority 1996, dated 1998).
